# Changes are numbered by the printed parent chain; changes in the protein carry UniProt numbers. The list shows a part of the results.
# T1: RBFOX1 RRM (Homo sapiens, UniProt Q9NWB1 109-208)
# T1 sequence: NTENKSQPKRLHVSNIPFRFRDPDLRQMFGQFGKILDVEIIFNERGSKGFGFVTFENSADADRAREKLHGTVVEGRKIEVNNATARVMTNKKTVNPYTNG
# B1: AUUCCCU (DNA:RNA)
# RNA: GGGAGACCGGAAUUCAGAUUGUCCAUUCCCUUUAAAUCCCGUCGUAGCCACCA
# DNA 1: CAATCTGAATTCCGGTCTCCC
# DNA 2: TGGTGGCTACGACGGGATT
# B2: UUGGAGC (DNA:RNA)
# RNA: B1 RNA with A25U, U27G, C28G, C29A, C30G, U31C
# DNA 1: CAATCTGAATTCCGGTCTCCC
# DNA 2: TGGTGGCTACGACGGGATT
# B3: CCUGGGU (DNA:RNA)
# RNA: B1 RNA with A25C, U26C, C28G, C29G, C30G
# DNA 1: CAATCTGAATTCCGGTCTCCC
# DNA 2: TGGTGGCTACGACGGGATT
# B4: CAGCCCA (DNA:RNA)
# RNA: B1 RNA with A25C, U26A, U27G, U31A
# DNA 1: CAATCTGAATTCCGGTCTCCC
# DNA 2: TGGTGGCTACGACGGGATT
# B5: UCAUAUA (DNA:RNA)
# RNA: GGGAGACCGGAAUUCAGAUUGUCCUCAUAUAUUAAAUCCCGUCGUAGCCACCA
# DNA 1: CAATCTGAATTCCGGTCTCCC
# DNA 2: TGGTGGCTACGACGGGATT
# B6: CUAGGUG (DNA:RNA)
# RNA: B5 RNA with U25C, C26U, U28G, A29G, A31G
# DNA 1: CAATCTGAATTCCGGTCTCCC
# DNA 2: TGGTGGCTACGACGGGATT
# B7: CGGUAAU (DNA:RNA)
# RNA: B5 RNA with U25C, C26G, A27G, U30A, A31U
# DNA 1: CAATCTGAATTCCGGTCTCCC
# DNA 2: TGGTGGCTACGACGGGATT
# B8: UCAUAGC (DNA:RNA)
# RNA: B5 RNA with U30G, A31C
# DNA 1: CAATCTGAATTCCGGTCTCCC
# DNA 2: TGGTGGCTACGACGGGATT
# B9: CUCAGAG (DNA:RNA)
# RNA: B1 RNA with A25C, U27C, C28A, C29G, C30A, U31G
# DNA 1: CAATCTGAATTCCGGTCTCCC
# DNA 2: TGGTGGCTACGACGGGATT
# B10: AAUUUCC (DNA:RNA)
# RNA: B1 RNA with U26A, C28U, C29U, U31C
# DNA 1: CAATCTGAATTCCGGTCTCCC
# DNA 2: TGGTGGCTACGACGGGATT
# B11: UGGCCCG (DNA:RNA)
# RNA: B1 RNA with A25U, U26G, U27G, U31G
# DNA 1: CAATCTGAATTCCGGTCTCCC
# DNA 2: TGGTGGCTACGACGGGATT
# B12: GCGCCGC (DNA:RNA)
# RNA: B1 RNA with A25G, U26C, U27G, C30G, U31C
# DNA 1: CAATCTGAATTCCGGTCTCCC
# DNA 2: TGGTGGCTACGACGGGATT
# B13: CCAAAGC (DNA:RNA)
# RNA: B5 RNA with U25C, U28A, U30G, A31C
# DNA 1: CAATCTGAATTCCGGTCTCCC
# DNA 2: TGGTGGCTACGACGGGATT
# B14: GAUACUG (DNA:RNA)
# RNA: B1 RNA with A25G, U26A, C28A, C30U, U31G
# DNA 1: CAATCTGAATTCCGGTCTCCC
# DNA 2: TGGTGGCTACGACGGGATT
# B15: CUCAGCA (DNA:RNA)
# RNA: B1 RNA with A25C, U27C, C28A, C29G, U31A
# DNA 1: CAATCTGAATTCCGGTCTCCC
# DNA 2: TGGTGGCTACGACGGGATT
# B16: AACCUAG (DNA:RNA)
# RNA: B1 RNA with U26A, U27C, C29U, C30A, U31G
# DNA 1: CAATCTGAATTCCGGTCTCCC
# DNA 2: TGGTGGCTACGACGGGATT
# B17: UGGUUUA (DNA:RNA)
# RNA: B5 RNA with C26G, A27G, A29U
# DNA 1: CAATCTGAATTCCGGTCTCCC
# DNA 2: TGGTGGCTACGACGGGATT
# B18: CGGUCCU (DNA:RNA)
# RNA: B1 RNA with A25C, U26G, U27G, C28U
# DNA 1: CAATCTGAATTCCGGTCTCCC
# DNA 2: TGGTGGCTACGACGGGATT
# B19: UCUGGCU (DNA:RNA)
# RNA: B1 RNA with A25U, U26C, C28G, C29G
# DNA 1: CAATCTGAATTCCGGTCTCCC
# DNA 2: TGGTGGCTACGACGGGATT
# B20: GUGUACC (DNA:RNA)
# RNA: B1 RNA with A25G, U27G, C28U, C29A, U31C
# DNA 1: CAATCTGAATTCCGGTCTCCC
# DNA 2: TGGTGGCTACGACGGGATT
# Target: T1, RBFOX1 RRM
# Experiment: EMSA; HiTS-Eq, 1 nM pool, 10 min; buffer printed only for the single-RNA assays: 10 mM Tris pH 7.5, 150 mM NaCl, 3.4 mM EDTA, 0.001% NP-40, 30 C
# Details: tags: His6 N-terminal (pET28a); label: 5' 32P
# Outline: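 Purified RbFox RRM, wild type or mutant, was incubated for 10 min in 50 µL with 1 nM of a 5′-radiolabelled RNA pool carrying 7 randomized nucleotides, whose flanks were annealed to DNA oligonucleotides, over a series of increasing protein concentrations. Unbound RNA was resolved on 8% native PAGE, cut out, reverse-transcribed, barcoded by PCR and sequenced on an Illumina HiSeq 2500. Relative association constants were derived from changes in read counts for each RNA species versus the control reaction and normalised to the cognate motif.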
row,Binder,binding signal
1,B1,0.0014 KA relative to UGCAUGU
2,B2,0.0134 KA relative to UGCAUGU
3,B3,0.0115 KA relative to UGCAUGU
4,B4,0.00257 KA relative to UGCAUGU
5,B5,0.00295 KA relative to UGCAUGU
6,B6,0.0181 KA relative to UGCAUGU
7,B7,0.0103 KA relative to UGCAUGU
8,B8,0.00582 KA relative to UGCAUGU
9,B9,0.0127 KA relative to UGCAUGU
10,B10,0.00118 KA relative to UGCAUGU
11,B11,0.0217 KA relative to UGCAUGU
12,B12,0.0127 KA relative to UGCAUGU
13,B13,0.000423 KA relative to UGCAUGU
14,B14,0.0155 KA relative to UGCAUGU
15,B15,0.00573 KA relative to UGCAUGU
16,B16,0.00207 KA relative to UGCAUGU
17,B17,0.016 KA relative to UGCAUGU
18,B18,0.0115 KA relative to UGCAUGU
19,B19,0.0184 KA relative to UGCAUGU
20,B20,0.0122 KA relative to UGCAUGU

# Reference: article PMC9911399, “Two distinct binding modes provide the RNA-binding protein RbFox with extraordinary sequence specificity”
